# The campaign covered roughly 230,000 compounds. About 3,600 (1.6%) were called active. The shares of active, inactive and inconclusive entries below differ from those in the screen. Calls follow the shape of the dose curve; as a rule, active = well fitted inhibition curve with a large enough effect (not every such curve was filed as active); inconclusive = small, poorly fitted or top-dose-only effect, or another doubt; inactive = no such curve, though single readings can be large or run the other way. Potencies beside an inconclusive call are fits to weak or partial responses and may not hold up.
# Target: Lysine-specific demethylase 4E (Homo sapiens) (UniProt B2RXH2)
# Test: qHTS Assay for Inhibitors of Human Jumonji Domain Containing 2E (JMJD2E)
# Conditions: JMJD2E catalytic domain, FDH-coupled NADH fluorescence (FDH is formaldehyde dehydrogenase); series mostly up to 57.1 µM
# Also: nearly all actives have a fitted effect of over 50% in size.
# Potency is read from the fitted curve at half-maximal effect; tags tell the direction and shape of the fitted curve.
# Chain of UniProt B2RXH2 (B2RXH2 whole entry, looked up, the tested form may be a part): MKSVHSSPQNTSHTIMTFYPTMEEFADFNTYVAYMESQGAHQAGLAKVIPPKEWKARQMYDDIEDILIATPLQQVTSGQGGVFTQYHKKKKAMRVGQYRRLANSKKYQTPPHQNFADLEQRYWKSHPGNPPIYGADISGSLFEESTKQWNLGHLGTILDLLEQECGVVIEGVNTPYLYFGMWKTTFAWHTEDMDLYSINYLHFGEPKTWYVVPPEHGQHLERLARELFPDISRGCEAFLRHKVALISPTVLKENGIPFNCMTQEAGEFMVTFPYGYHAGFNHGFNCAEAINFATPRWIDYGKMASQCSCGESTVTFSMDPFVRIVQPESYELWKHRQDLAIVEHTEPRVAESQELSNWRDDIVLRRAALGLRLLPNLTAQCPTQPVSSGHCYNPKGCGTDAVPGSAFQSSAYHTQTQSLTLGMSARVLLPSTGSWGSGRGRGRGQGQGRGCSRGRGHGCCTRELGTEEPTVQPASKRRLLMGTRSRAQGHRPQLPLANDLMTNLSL
row,Compound,Potency
1,Fc1ccc2[nH]c3c(N4CCc5ccccc5C4)ncnc3c2c1,"inconclusive: 25.1 µM [inhibitor, partial curve]"
2,CC(C)CC(=O)Nc1ccc(C(=O)NNC(=S)NC(=O)C2CCCCC2)cc1,"inconclusive: 39.8 µM [inhibitor, single point]"
3,Cc1cc(C)cc(NC(=S)NCc2ccc3[nH]c4c(c3c2)CCCC4)c1,inactive
4,COc1ccc(/C=N/NC2=NCCCCC2)c(OC)c1,"inconclusive: 28.2 µM [inhibitor, partial curve]"
5,Nc1nc2c(ncn2C2OC(COC(=O)c3ccccc3)C(OC(=O)c3ccccc3)C2OC(=O)c2ccccc2)c(=O)[nH]1 (centres undefined),inactive
6,CCS(=O)(=O)c1ccc2oc(Nc3cc(C)cc(C)c3)nc2c1,inactive
7,COc1cc(/C=C/C(=O)/C=C(O)/C=C/c2ccc(O)c(OC)c2)ccc1O,active: 20 µM
8,COC(=O)c1ccccc1NC(=O)CS(=O)(=O)Cc1nc(-c2ccc(C)cc2)oc1C,"inconclusive: 35.5 µM [inhibitor, single point]"
9,COC(=O)c1c(NC(=O)C(C)C)sc2c1C(C(=O)OC)CC2 (centres undefined),"inconclusive: 35.5 µM [inhibitor, single point]"
10,O=C(Oc1ccc(-c2csnn2)cc1)c1cccs1,inactive
11,Cc1cc(-c2n[nH]c(=S)n2/N=C/c2ccc(Cl)c([N+](=O)[O-])c2)n[nH]1,"inconclusive: 28.2 µM [inhibitor, single point]"
12,Nc1c(C(=O)NCCc2ccc(Cl)cc2)sc2ccc(S(=O)(=O)N3CCCCC3)cc12,"inconclusive: 31.6 µM [inhibitor, single point]"
13,Cc1sc2ncnc(N/N=C/c3ccc(O)cc3)c2c1C,inactive
14,Cc1ccccc1NC(=S)N/N=C/C(C)c1ccccc1 (centres undefined),inactive
15,O=C(CSC(=S)N1CCCCC1)Nc1ncc2c(n1)CC(c1ccco1)CC2=O (centres undefined),inactive
16,Cc1sc2nc(C3CC3)nc(NCCNS(C)(=O)=O)c2c1C,inactive
17,COc1ccc(C(=O)Nc2sc3c(c2C#N)CCN(C(C)=O)C3)cc1,"inconclusive: 35.5 µM [inhibitor, single point]"
18,CCCC(=O)Nc1cccc(-c2nc3ccccc3o2)c1,"inconclusive: 28.2 µM [inhibitor, partial curve]"
19,COCCNC(=O)c1ccc2c3n(nc2c1)-c1ccc(Cl)cc1CO3,"inconclusive: 28.2 µM [inhibitor, partial curve]"
20,COc1ccc2[nH]c(=O)c(CN(Cc3nnnn3Cc3ccc(F)cc3)CC3CCCO3)cc2c1 (centres undefined),"inconclusive: 28.2 µM [inhibitor, partial curve]"
21,O=C(c1cc(-c2cccs2)nc2ccccc12)N1CCN(c2ccccc2O)CC1,"inconclusive: 28.2 µM [inhibitor, partial curve]"
22,COc1ccc(S(=O)(=O)Nc2ccccc2C(=O)NCc2ccco2)cc1,"inconclusive: 25.1 µM [inhibitor, partial curve]"
23,Oc1ccccc1CNc1cnc2ccccc2c1,"inconclusive: 31.6 µM [inhibitor, partial curve]"
24,CC(=O)c1sc(Nc2nc3ccc(F)cc3s2)nc1C,"inconclusive: 22.4 µM [inhibitor, partial curve]"
25,CCN(CC)S(=O)(=O)c1cccc(C(=O)N/N=C/c2ccccn2)c1,"inconclusive: 39.8 µM [inhibitor, single point]"

row,Compound,Potency
1,Oc1c(Cl)cc(Cl)c2cccnc12,active: 14.1 µM
2,c1ccc(-c2ccc(C(c3ccccc3)n3ccnc3)cc2)cc1 (centres undefined),inactive
3,c1ccc(-n2c3ccccc3c3ccccc32)cc1,"inconclusive: 35.5 µM [inhibitor, single point]"
4,COc1cc(OC)cc(-c2nc3ccccc3c(=O)o2)c1,"inconclusive: 7.08 µM [inhibitor, single point]"
5,Cc1cccc(-n2nc(C)c3c2NC2=C(C(=O)CCC2)C3c2ccccn2)c1 (centres undefined),"inconclusive: 14.1 µM [inhibitor, partial curve]"
6,O=C(NN=C1CCN(Cc2ccccc2)CC1)c1cc2ccccc2cc1O,active: 28.2 µM
7,O=C(NCc1cccnc1)c1ccc(-c2cc3ccccc3oc2=O)cc1,"inconclusive: 7.94 µM [inhibitor, partial curve]"
8,Cc1ccc2nc(-c3ccc(NC(=O)COC(=O)c4ccc(=O)[nH]c4)cc3)sc2c1,inactive
9,CN(C(=O)COc1cc(=O)n(C)c2ccccc12)c1ccc(Cl)cc1,inactive
10,COc1ccccc1N1CCN(CCCNc2c(C)c(=O)n(C)c(=O)n2C)CC1,inactive
11,CCc1ccc2[nH]c(=O)c(CN(CCO)C(=O)NCc3ccccc3)cc2c1,"inconclusive: 25.1 µM [inhibitor, single point]"
12,CCOC(=O)N1CCC(N(C(=O)Nc2ccc(Cl)c(Cl)c2)C(C)CC)CC1 (centres undefined),inactive
13,O=C(OC1CCN(c2ncc(C(F)(F)F)cc2Cl)CC1)c1cccc(C(F)(F)F)c1,"inconclusive: 25.1 µM [inhibitor, single point]"
14,CC(NC(=O)/C(C#N)=C/c1ccc(Cl)c([N+](=O)[O-])c1)c1ccccc1 (centres undefined),inactive
15,O=C(CSc1nnc(SCc2ccccc2)s1)N/N=C/C=C/c1ccco1,"inconclusive: 39.8 µM [inhibitor, single point]"
16,Cn1cc(C=O)c2cc(F)ccc21,"inconclusive: 39.8 µM [inhibitor, single point]"
17,CCOC(=O)c1c(NC(=O)COc2ccccc2)sc2c1CC(C)(C)NC2(C)C,"inconclusive: 31.6 µM [inhibitor, single point]"
18,CC(C)CCSc1nc(N2CCOCC2)c2c(c1C#N)CC(C)(C)OC2,inactive
19,Cc1cc(=O)oc2cc(Oc3ccc(C(N)=O)cc3[N+](=O)[O-])ccc12,"inconclusive: 31.6 µM [inhibitor, partial curve]"
20,COc1ccc(N2C(=S)NC3N2C(=S)NC3(C)c2ccccc2)cc1 (centres undefined),"inconclusive: 39.8 µM [inhibitor, single point]"
21,CCOC(=O)N1C(=O)c2cc(OC)ccc2S1(=O)=O,inactive
22,CC(NS(=O)(=O)c1ccccc1)C(c1cccs1)N1CCOCC1 (centres undefined),inactive
23,Fc1ccc(N2CCN(Cc3cnc(Oc4ccc(Br)cc4)s3)CC2)cc1,inactive
24,COc1ccc(-c2c(C#N)c(N)nc3c2CCC3)cc1,"inconclusive: 31.6 µM [inhibitor, partial curve]"
25,CC1(C)Cc2ccccc2-c2c1c(=O)n(Cc1ccccc1)c1nnnn21,"inconclusive: 39.8 µM [inhibitor, single point]"

row,Compound,Potency
1,Cc1cc(NC(=O)CSc2ccc3nnc(-c4cccs4)n3n2)no1,inactive
2,COc1ccc(/C=C/c2nnc(NC(=O)COc3ccccc3)s2)cc1,"inconclusive: 11.2 µM [inhibitor, partial curve]"
3,Cc1nnc(N/N=C/c2ccccn2)[nH]c1=O,active: 7.94 µM
4,CCOc1ccc(C(=O)NCC(=O)OCc2cc(C(C)=O)ccc2OC)cc1,inactive
5,Cc1ccc(NC(=O)CSc2nnc(Cc3cccn3C)n2-c2ccc(F)cc2)cc1,inactive
6,Nn1cc(-c2ccccc2)nc1SCC(=O)N1CCN(S(=O)(=O)c2ccc3ccccc3c2)CC1,"inconclusive: 25.1 µM [inhibitor, single point]"
7,COCC(C)NC(=O)c1noc2c1CCc1cc(OC)ccc1-2 (centres undefined),inactive
8,O=C(CCCCCN1C(=O)c2ccccc2C1=O)Nc1ccc2c(c1)OCCO2,inactive
9,N#Cc1nc(-c2ccc(OCc3ccccc3Cl)cc2)oc1NCCCn1ccnc1,active: 3.16 µM
10,CCCCN1CN(S(=O)(=O)c2cccs2)c2nc3ccccc3nc21,"inconclusive: 28.2 µM [inhibitor, partial curve]"
11,Cc1cccc(/C=C/C(=O)c2cc(Br)ccc(=O)c2O)c1,"inconclusive: 31.6 µM [inhibitor, single point]"
12,CC(OC(=O)Cc1coc2cc3c(cc12)CCC3)C(=O)NCc1ccc2c(c1)OCO2 (centres undefined),inactive
13,CCc1ccc(N2C(=O)CC(N3CCN(Cc4ccc5c(c4)OCO5)CC3)C2=O)cc1 (centres undefined),inactive
14,CCOC(=O)N1CCN(CC(=O)Nc2c(C(=O)OC)[nH]c3cccc(Cl)c23)CC1,"inconclusive: 28.2 µM [inhibitor, single point]"
15,COc1ccc(CCNCC(=O)N2C(C)CCCC2C)cc1OC (centres undefined),active: 31.6 µM
16,CCN1CCN(CCCNC(=O)c2cc3c(=O)[nH]c4ccccc4c3s2)CC1,"inconclusive: 31.6 µM [inhibitor, partial curve]"
17,COc1cccc(/C=N/NC(=O)CNC(=O)c2ccc(S(=O)(=O)N3CCCC3)cc2)c1OC,inactive
18,COc1ccc2c(c1)CCN(C(=O)CCl)C2C1C(=O)CCCC1=O (centres undefined),"inconclusive: 31.6 µM [inhibitor, single point]"
19,CC1(C)CC2CC(C)(CN2C(=O)COC(=O)c2cc(Cl)cc(Cl)c2N)C1 (centres undefined),"inconclusive: 31.6 µM [inhibitor, partial curve]"
20,Cc1ccc(Cl)cc1-c1ccc(/C=N/n2cnnc2)o1,"inconclusive: 35.5 µM [inhibitor, single point]"
21,COC(=O)CCC(=O)OC1(C)C(=O)C2=CN(C3CC3)C(c3ccc(OC)cc3)=CC2=C(Br)C1=O (centres undefined),"inconclusive: 3.55 µM [inhibitor, single point]"
22,COc1cc2ncnc(Nc3cccc(Br)c3)c2cc1OC,"inconclusive: 35.5 µM [inhibitor, partial curve]"
23,Cc1cc(C)n2c(Nc3ccc4c(c3)OCCO4)c(-c3ccccc3)nc2n1,"inconclusive: 39.8 µM [inhibitor, single point]"
24,O=C1C2CC=CCC2C(=O)N1Cc1nnc(-c2ccccc2Br)o1 (centres undefined),inactive
